Reference: the supplement of paper PMC8728848
The list shows a part of the results.

Experiments:
Experiment in all cases: glycan array binding signal (z-score within array); higher = stronger binding
Conditions in all cases: glycan notation: IUPAC condensed, linker removed
[1] = biological target: Gal(b1-4)GlcNAc(b1-3)Gal(b1-4)GlcNAc(b1-3)Gal(b1-4)GlcNAc(b1-3)Gal(b1-4)GlcNAc(b1-2)Man(a1-3)[Gal(b1-4)GlcNAc(b1-3)Gal(b1-4)GlcNAc(b1-3)Gal(b1-4)GlcNAc(b1-3)Gal(b1-4)GlcNAc(b1-2)Man(a1-6)]Man(b1-4)GlcNAc(b1-4)GlcNAc
Summary of the method: (§1)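 The binding signal is a Z-score computed within each array and averaged over linkers. Arrays of the same protein sequence at different concentrations or buffers were also averaged together. Data originate from 3228 arrays in the Consortium for Functional Glycomics database, kept only where the protein sequence was available.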

[2] = biological target: Gal(b1-4)GlcNAc(b1-3)Gal(b1-4)GlcNAc(b1-3)Gal(b1-4)GlcNAc(b1-3)Gal(b1-4)GlcNAc(b1-2)Man(a1-3)[Gal(b1-4)GlcNAc(b1-3)Gal(b1-4)GlcNAc(b1-3)Gal(b1-4)GlcNAc(b1-3)Gal(b1-4)GlcNAc(b1-2)Man(a1-6)]Man(b1-4)GlcNAc(b1-4)[Fuc(a1-6)]GlcNAc
Summary of the method: as §1

[3] = biological target: Gal(b1-4)GlcNAc(b1-3)Gal(b1-4)GlcNAc(b1-3)Gal(b1-4)GlcNAc(b1-3)Gal(b1-4)GlcNAc(b1-2)[Gal(b1-4)GlcNAc(b1-3)Gal(b1-4)GlcNAc(b1-3)Gal(b1-4)GlcNAc(b1-3)Gal(b1-4)GlcNAc(b1-6)]Man(a1-6)[Gal(b1-4)GlcNAc(b1-3)Gal(b1-4)GlcNAc(b1-3)Gal(b1-4)GlcNAc(b1-3)Gal(b1-4)GlcNAc(b1-2)Man(a1-3)]Man(b1-4)GlcNAc(b1-4)[Fuc(a1-6)]GlcNAc
Summary of the method: as §1

[4] = biological target: Gal(b1-4)GlcNAc(b1-3)Gal(b1-4)GlcNAc(b1-3)Gal(b1-4)GlcNAc(b1-3)Gal(b1-4)GlcNAc(b1-3)Gal(b1-4)GlcNAc(b1-2)Man(a1-3)[Gal(b1-4)GlcNAc(b1-3)Gal(b1-4)GlcNAc(b1-3)Gal(b1-4)GlcNAc(b1-3)Gal(b1-4)GlcNAc(b1-3)Gal(b1-4)GlcNAc(b1-2)Man(a1-6)]Man(b1-4)GlcNAc(b1-4)GlcNAc
Summary of the method: as §1

[5] = biological target: Gal(b1-4)GlcNAc(b1-3)Gal(b1-4)GlcNAc(b1-3)Gal(b1-4)GlcNAc(b1-3)Gal(b1-4)GlcNAc(b1-3)Gal(b1-4)GlcNAc(b1-2)Man(a1-3)[Gal(b1-4)GlcNAc(b1-3)Gal(b1-4)GlcNAc(b1-3)Gal(b1-4)GlcNAc(b1-3)Gal(b1-4)GlcNAc(b1-3)Gal(b1-4)GlcNAc(b1-2)Man(a1-6)]Man(b1-4)GlcNAc(b1-4)[Fuc(a1-6)]GlcNAc
Summary of the method: as §1

[6] = biological target: Gal(b1-4)GlcNAc(b1-3)Gal(b1-4)GlcNAc(b1-3)Gal(b1-4)GlcNAc(b1-3)Gal(b1-4)GlcNAc(b1-3)Gal(b1-4)GlcNAc(b1-2)[Gal(b1-4)GlcNAc(b1-3)Gal(b1-4)GlcNAc(b1-3)Gal(b1-4)GlcNAc(b1-3)Gal(b1-4)GlcNAc(b1-3)Gal(b1-4)GlcNAc(b1-6)]Man(a1-6)[Gal(b1-4)GlcNAc(b1-3)Gal(b1-4)GlcNAc(b1-3)Gal(b1-4)GlcNAc(b1-3)Gal(b1-4)GlcNAc(b1-3)Gal(b1-4)GlcNAc(b1-2)Man(a1-3)]Man(b1-4)GlcNAc(b1-4)[Fuc(a1-6)]GlcNAc
Summary of the method: as §1

[7] = biological target: Gal(b1-4)GlcNAc(b1-3)Gal(b1-4)GlcNAc(b1-3)Gal(b1-4)GlcNAc(b1-3)Gal(b1-4)GlcNAc(b1-3)Gal(b1-4)GlcNAc(b1-3)Gal(b1-4)GlcNAc(b1-2)Man(a1-3)[Gal(b1-4)GlcNAc(b1-3)Gal(b1-4)GlcNAc(b1-3)Gal(b1-4)GlcNAc(b1-3)Gal(b1-4)GlcNAc(b1-3)Gal(b1-4)GlcNAc(b1-3)Gal(b1-4)GlcNAc(b1-2)Man(a1-6)]Man(b1-4)GlcNAc(b1-4)GlcNAc
Summary of the method: as §1

[8] = biological target: Gal(b1-4)GlcNAc(b1-3)Gal(b1-4)GlcNAc(b1-3)GalNAc
Summary of the method: as §1

[9] = biological target: Gal(b1-4)GlcNAc(b1-3)Gal(b1-4)GlcNAc(b1-3)[Gal(b1-4)GlcNAc(b1-3)Gal(b1-4)GlcNAc(b1-6)]GalNAc
Summary of the method: as §1

[10] = biological target: Gal(b1-4)GlcNAc(b1-3)Gal(b1-4)GlcNAc(b1-6)[Gal(b1-3)]GalNAc
Summary of the method: as §1

[11] = biological target: Gal(b1-4)GlcNAc(b1-3)Gal(b1-4)[Fuc(a1-3)]GlcNAc(b1-3)Gal(b1-4)[Fuc(a1-3)]GlcNAc
Summary of the method: as §1

[12] = biological target: Gal(b1-4)GlcNAc(b1-3)GalNAc
Summary of the method: as §1

[13] = biological target: Gal(b1-4)GlcNAc(b1-3)[Fuc(a1-3)GlcNAc(b1-6)]Gal(b1-4)Glc
Summary of the method: as §1

[14] = biological target: Gal(b1-4)GlcNAc(b1-3)[Gal(b1-4)GlcNAc(b1-6)]Gal(b1-4)GlcNAc
Summary of the method: as §1

[15] = biological target: Gal(b1-4)GlcNAc(b1-3)[GlcNAc(b1-6)]Gal(b1-4)GlcNAc
Summary of the method: as §1

[16] = biological target: Gal(b1-4)GlcNAc(b1-6)Gal(b1-4)GlcNAc
Summary of the method: as §1

[17] = biological target: Gal(b1-4)GlcNAc(b1-6)GalNAc
Summary of the method: as §1

[18] = biological target: Gal(b1-4)GlcNAc(b1-6)[Gal(b1-3)]GalNAc
Summary of the method: as §1

[19] = biological target: Gal(b1-4)GlcNAc(b1-6)[Gal(b1-4)GlcNAc(b1-3)]GalNAc
Summary of the method: as §1

Gal(b1-4)GlcNAc6P = biological target: Gal(b1-4)GlcNAc6P
Summary of the method: as §1

Gal(b1-6)Gal = biological target: Gal(b1-6)Gal
Summary of the method: as §1

Gal3S(b1-3)GalNAc = biological target: Gal3S(b1-3)GalNAc
Summary of the method: as §1

Gal3S(b1-3)GlcNAc = biological target: Gal3S(b1-3)GlcNAc
Summary of the method: as §1

[20] = biological target: Gal3S(b1-3)[Fuc(a1-4)]GlcNAc
Summary of the method: as §1

Gal3S(b1-4)Glc = biological target: Gal3S(b1-4)Glc
Summary of the method: as §1

Gal3S(b1-4)Glc6S = biological target: Gal3S(b1-4)Glc6S
Summary of the method: as §1

Gal3S(b1-4)GlcNAc = biological target: Gal3S(b1-4)GlcNAc
Summary of the method: as §1

[21] = biological target: Gal3S(b1-4)[Fuc(a1-3)]Glc6S
Summary of the method: as §1

[22] = biological target: Gal3S(b1-4)[Fuc(a1-3)]GlcNAc
Summary of the method: as §1

[23] = biological target: Gal3S(b1-4)[Fuc(a1-3)]GlcNAc6S
Summary of the method: as §1

Gal3S4S(b1-4)GlcNAc = biological target: Gal3S4S(b1-4)GlcNAc
Summary of the method: as §1

Gal3S6S(b1-4)GlcNAc = biological target: Gal3S6S(b1-4)GlcNAc
Summary of the method: as §1

Gal3S6S(b1-4)GlcNAc6S = biological target: Gal3S6S(b1-4)GlcNAc6S
Summary of the method: as §1

Gal4S(b1-4)GlcNAc = biological target: Gal4S(b1-4)GlcNAc
Summary of the method: as §1

Gal4S6S(b1-4)GlcNAc = biological target: Gal4S6S(b1-4)GlcNAc
Summary of the method: as §1

Gal6P(b1-4)GlcNAc = biological target: Gal6P(b1-4)GlcNAc
Summary of the method: as §1

Gal6S(b1-3)GlcNAc = biological target: Gal6S(b1-3)GlcNAc
Summary of the method: as §1

Gal6S(b1-3)GlcNAc6S = biological target: Gal6S(b1-3)GlcNAc6S
Summary of the method: as §1

B1: Sebin1 (Coprinopsis cinerea), A8PEE3 (protein)
chain: MTSPFYAHIHNVQDDNTWRFTLIFANRATADEWWRAISEAPANTSIAKSITRVTPQYYTHDVNIWNIWNFFADGNIKSISERFRGRLFIVLENDRGGRGITVIPPVPIVDHVSGNWFYIRSKTAPHLFWYYDERRSSIYASKEKRTRFKISIRNPSSQTPKNAIMINTDDVTIHIKENLYVGVDNNLGHIIPTRAYRTFKFGELESGAIAGFDVVENIEERCSSTFDGASLSISGPDSSSPGEPWELV
- glycan array binding signal (z-score) [1]: 0.154
- glycan array binding signal (z-score) [2]: 6.4
- glycan array binding signal (z-score) [3]: 2.44
- glycan array binding signal (z-score) [4]: 0.513
- glycan array binding signal (z-score) [5]: 2.62
- glycan array binding signal (z-score) [6]: 2.27
- glycan array binding signal (z-score) [7]: 0.452
- glycan array binding signal (z-score) [8]: -0.309
- glycan array binding signal (z-score) [9]: -0.394
- glycan array binding signal (z-score) [10]: 0.258
- glycan array binding signal (z-score) [11]: 0.035
- glycan array binding signal (z-score) [12]: -0.497
- glycan array binding signal (z-score) [13]: 0.066
- glycan array binding signal (z-score) [14]: -0.435
- glycan array binding signal (z-score) [15]: -0.163
- glycan array binding signal (z-score) [16]: 0.135
- glycan array binding signal (z-score) [17]: 0.03
- glycan array binding signal (z-score) [18]: -0.028
- glycan array binding signal (z-score) [19]: -0.114
- glycan array binding signal (z-score) (Gal(b1-4)GlcNAc6P): 0.229
- glycan array binding signal (z-score) (Gal(b1-6)Gal): 0.332
- glycan array binding signal (z-score) (Gal3S(b1-3)GalNAc): -0.501
- glycan array binding signal (z-score) (Gal3S(b1-3)GlcNAc): -0.287
- glycan array binding signal (z-score) [20]: -0.14
- glycan array binding signal (z-score) (Gal3S(b1-4)Glc): -0.544
- glycan array binding signal (z-score) (Gal3S(b1-4)Glc6S): -0.211
- glycan array binding signal (z-score) (Gal3S(b1-4)GlcNAc): -0.358
- glycan array binding signal (z-score) [21]: 0.696
- glycan array binding signal (z-score) [22]: -0.372
- glycan array binding signal (z-score) [23]: 0.116
- glycan array binding signal (z-score) (Gal3S4S(b1-4)GlcNAc): -0.382
- glycan array binding signal (z-score) (Gal3S6S(b1-4)GlcNAc): -0.138
- glycan array binding signal (z-score) (Gal3S6S(b1-4)GlcNAc6S): 0.906
- glycan array binding signal (z-score) (Gal4S(b1-4)GlcNAc): -0.5
- glycan array binding signal (z-score) (Gal4S6S(b1-4)GlcNAc): -0.099
- glycan array binding signal (z-score) (Gal6P(b1-4)GlcNAc): -0.914
- glycan array binding signal (z-score) (Gal6S(b1-3)GlcNAc): -0.146
- glycan array binding signal (z-score) (Gal6S(b1-3)GlcNAc6S): -0.095
